Data: PubChem BioAssay AID493208 (National Center for Advancing Translational Sciences (NCATS), 2011)
Screen size: about 44,000 compounds; about 340 (0.77%) were called active. Roughly 5% stayed inconclusive and do not appear here. Calls come from the whole dose curve; as a rule, active = well fitted inhibition curve with a large enough effect; inconclusive = small, poorly fitted or top-dose-only effect; inactive = flat fitted curve, though single readings scatter. Some of the results follow.

Experiment: Acumen qHTS Assay for Inhibitors of the mTORC1 Signaling Pathway in MEF (Tsc2-/-, p53-/-) Cells: Sytravon;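 note: plate controls were DMSO for no effect and rapamycin for full effect; nearly all actives have a fitted effect of over 50% in size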
Details: phospho-rpS6 immunofluorescence/PI, 24 h; series mostly up to 38.3 µM; activity change, negative = inhibition: at the top concentration
Summary of the method: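 Read-out: phospho-S6 Alexa-488 intensity over PI intensity per well, scored as % active cells using thresholds from rapamycin (7.5 nM) and DMSO controls. Tsc2-/-, p53-/- MEFs exposed to compound for 24 h; PI cell count recorded as viability.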

Activity change, negative = inhibition, inactive:
CCOc1ccc(N(CC(=O)Nc2ccc3c(c2)OCO3)S(=O)(=O)c2ccccc2)cc1 13.9%
CC(C)Sc1ncc(Cl)c(C(=O)Nc2c(C(=O)Nc3ccccc3)oc3ccccc23)n1 -1.1%
Cc1ccccc1Nc1c(-c2ccccc2O)nc2sccn12 -21.1%
Cc1nn(C)c2c1c(-c1ccccc1)cc(=O)n2Cc1c(F)cccc1Cl -9.9%
O=C(c1cc(-c2ccc(Cl)cc2)on1)N(Cc1ccc(F)cc1)Cc1ccco1 1.01%
CCc1ccc(NS(=O)(=O)c2ccc3[nH]cc(C(=O)N4CCCCCC4)c(=O)c3c2)cc1 2.29%
O=C1CN(C(=O)c2ccc(S(=O)(=O)N3CCCC3)cc2)C(c2ccc(F)cc2)c2cc(F)ccc2N1 (stereo not given) 5.1%
CCc1cccc(NC(=O)c2sc3nc[nH]c(=O)c3c2C)c1 -2.38%
CCOC(=O)Cc1ccc(NC(=O)N2CCC(CN3CCC(C)CC3)CC2)cc1 0.425%
COc1ccc(N(C(=O)c2ccc(C)cc2)S(=O)(=O)c2ccc(Cl)cc2)cc1 11.6%
CCN(c1ccccc1)S(=O)(=O)c1nnc(NC(=O)C(C)Oc2ccccc2)s1 (stereo not given) 1.1%
COc1cc(C2C(C(=O)Nc3ccc(C)cc3C)=C(C)Nc3nc(SCc4ccccc4)nn32)cc(OC)c1OC (stereo not given) 5.82%
Cc1ccc2oc3c(c(=O)c2c1)C(c1cccc(O)c1)N(CCCN1CCOCC1)C3=O (stereo not given) -4.12%
Cc1ccc(CNC(=O)c2cnn3c(C)c(Cc4c(F)cccc4Cl)c(C)nc23)cc1 4.21%
CCOc1ccc(CCNC(=O)c2ccc(C)c(-n3c(C)nc4cccnc43)c2)cc1OCC -12.1%
CCOc1ccc(C(=O)Nc2cc(-c3ccccc3)no2)cc1 2.4%
Cc1cc(Br)ccc1NC(=O)CN1C(=O)c2cccnc2Sc2ccccc21 -9.78%
COc1ccc(N(Cc2cccs2)C(=O)COc2ccc([N+](=O)[O-])cc2)cc1 -2.81%
CCN(Cc1ccccc1)C(=O)c1cc2ccc3cccnc3c2[nH]1 -5.35%
O=C(CCn1cnc2onc(-c3ccc(F)cc3)c2c1=O)N1CCN(c2cccc(Cl)c2)CC1 -7.25%
O=C(Nc1ccccc1C(F)(F)F)N1CCN(c2ccc3nnc(-c4ccc(F)cc4)n3n2)CC1 -1.97%
CCC(C(=O)NCCCN(CC)CC)n1ncn2c(cc3occc32)c1=O (stereo not given) 1.27%
CCOc1ccc(CNC(=O)C2Cc3cc(S(=O)(=O)N4CCCCCC4)ccc3N2C(C)=O)cc1 (stereo not given) 0.852%
Cc1ccc(NC(=O)Cn2c(-c3nonc3N)nc3ccccc32)cc1Cl -4.36%
CCOc1ccc(OCC)c(NC(=O)C2CCN(c3cnccn3)CC2)c1 1.04%
O=C(Nc1nnc(S(=O)(=O)N2CCOCC2)s1)c1ccc(F)cc1 -0.121%
N#Cc1cccc(NC(=O)c2ccc3c(c2)N(Cc2cccc(Cl)c2)C(=O)c2ccccc2S3(=O)=O)c1 2.34%
O=C(c1ccc(F)cc1F)N1CCC(c2noc(-c3ccc(S(=O)(=O)N4CCCC4)cc3)n2)CC1 5.45%
Cc1ccccc1-c1noc(-c2ccccc2OCC(=O)Nc2ccccc2[N+](=O)[O-])n1 0.632%
CCc1ccc(S(=O)(=O)c2nnn3c2nc(NCc2ccccc2OC)c2cc(Cl)ccc23)cc1 -15.1%
CCc1ccc(NC(=O)CN(Cc2ccccc2)S(=O)(=O)c2ccc3nc(C)sc3c2)cc1 3.97%
Cn1c(=O)oc2cc(S(=O)(=O)Nc3ccc(O)cc3)ccc21 -0.0579%
COc1ccc(C2NC(=O)N(C)C3=C2C(=O)N(c2ccc(C)cc2)C3)cc1 (stereo not given) 2.85%
Cc1ccc2oc(=O)n(CCNC(=O)Nc3ccc(C)c(F)c3)c2c1 -0.734%
Cc1ccc(N2CCN(C(=O)c3noc4c3COc3ccc(C)cc3-4)CC2)c(C)c1 -1.9%
Cc1ccc(CN(C(=O)COc2ccc(Br)cc2)c2ccccn2)o1 -18.7%
COc1ccc(NC(=O)CSc2nc(-c3ccccc3)nc3c2Cc2c(CO)cnc(C)c2O3)cc1Cl 5.08%
COc1ccc(Cl)cc1N(C)C(=O)C(=O)Nc1ccc2nc3n(c(=O)c2c1)CCCCC3 -3.76%
Cc1ccc(C)c(N2CCN(C(=O)C(C)n3c(C)c4cnn(-c5ccccc5)c(=O)c4c3C)CC2)c1 (stereo not given) -5.69%
CC(Nc1ccc(-c2nc(-c3ccccn3)no2)cc1[N+](=O)[O-])c1ccccc1 (stereo not given) -1.55%
Cc1ccc(C)c(Cn2nc(C)n3c(cc4cc(C)ccc43)c2=O)c1 0.517%
COC(=O)c1ccc(OCC2c3cc(OC)c(OC)cc3CCN2C(=O)c2ccccc2F)cc1 (stereo not given) -0.438%
Cc1ccc(CNC(=O)c2c(-c3cccc(Br)c3)noc2C)o1 -18.3%
O=C(CSCc1cnn(-c2ccccc2)c1-n1cccc1)Nc1ccc(F)cc1F -0.373%
CCc1ccc(NC(=O)C(=O)NCC(c2cccnc2)N2CCOCC2)cc1 (stereo not given) -2.34%
COC(=O)c1ccc(Cl)c(NC(=O)C2CCN(S(=O)(=O)Cc3ccccc3)CC2)c1 -5.66%
Cc1cccc(C(=O)Nc2cccc(OCc3cc(=O)n4c(C)csc4n3)c2)c1 4.46%
CCc1ccc(NC(=O)c2cc3c(=O)n(Cc4cccnc4)ccc3nc2C)cc1 -1.59%
CC(C)c1nn2c(=O)cc(COC(=O)CNC(=O)c3ccccc3)nc2s1 -1.4%
COc1ccc(Nc2nc(N)nc(CSc3nc4cc(OC)ccc4s3)n2)cc1 -27.7%
COc1ccc(NC(=O)Cc2csc(COc3cccc(C)c3)n2)c(OC)c1 -0.0768%
COc1ccc(-c2noc(CCC(=O)NCc3ccc(OC)cc3OC)n2)cc1 1.23%
COc1ccc(OCC(=O)NCCS(=O)(=O)N2CCN(c3cccc(Cl)c3)CC2)cc1 -7.58%
CCn1cc(C(=O)N(C)Cc2ccccc2)c(=O)c2cc(S(=O)(=O)N3CCCCCC3)ccc21 7.56%
Cc1cc(C)cc(OCC(=O)N(Cc2ccc(C)o2)C2CCS(=O)(=O)C2)c1 (stereo not given) -6.21%
CCOC(=O)c1c(C)sc(-c2c(-c3ccc(OC)c(F)c3)[nH]c3c2c(=O)[nH]c(=O)n3C)c1O 0.357%
CC(C)Oc1ccc(CNC(=O)c2ccc3nc(Cc4ccccc4)oc3c2)cc1 -7.96%
CCC(CC)C(=O)Nc1ccc2nc(SCC(=O)N3c4ccccc4CC3C)sc2c1 (stereo not given) 0.257%
COCCNC(=O)c1cc2c(Cl)nc3ccc(C)cc3c2s1 1.15%
Cc1ccc(CN(Cc2ccco2)C(=O)c2oc3c(C)c(C)ccc3c2C)cc1 -7.78%
COc1cccc(N(CC(=O)N2CCC(C)CC2)S(=O)(=O)c2ccc(C)cc2)c1 7.39%
COc1ccc(Cl)cc1NC(=O)c1c(NCc2ccc(C)o2)sc2c1CCCC2 -9.87%
COc1cc(OC)c(Nc2ncnc3onc(-c4cccc(Cl)c4)c23)cc1Cl 3.18%
CCC(C)NC(=O)CSc1nc2cc3c(cc2c(=O)n1CCCC(=O)NCc1ccc2c(c1)OCO2)OCO3 (stereo not given) 0.475%
Clc1ccccc1Cc1cn2cc(-c3ccccc3)nc2s1 -14.4%
CCc1ccc(NC(=O)CSc2nnc(-c3cc4occc4n3C)n2-c2ccccc2C)cc1 -15.4%
Cn1c(=O)c2c(-c3ccccc3Br)n(CCc3ccccc3)cc2n(C)c1=O -4.6%
CCCCOc1ccc(C2=NC(c3ccccc3)=Nc3ccc(OC)cc3N2)cc1 0.717%
C=CCc1c(C)nc2nc(SCC(=O)Nc3ccc(OCC)cc3)nn2c1C -11.2%
COc1ccccc1CNC(=O)Cn1nc(C)c2nn(-c3ccc(Cl)cc3)c(C)c2c1=O -0.115%
CC(C)c1ccc(Nc2ncnc3c2c(-c2ccccc2)cn3-c2ccccc2)cc1 3.98%
Cc1cc(C)cc(NC(=O)C2(c3cccs3)CCOCC2)c1 -10.1%
COc1ccccc1NC(=O)CSc1nnc2c3ccccc3n(C)c2n1 -10.4%
Clc1cccc(-n2ncc3c(N4CCN(Cc5ccccc5)CC4)ncnc32)c1 10.9%
COc1cccc(CNC(=O)Cn2ccc3cc(S(=O)(=O)N4CCC(C)CC4)ccc32)c1 -6.4%
Cc1ccc(-c2nc3cccnc3s2)cc1NC(=O)Cc1ccccc1 -3.92%
COc1ccc(NC(=O)Cn2ccn(-c3ccccc3)c(=O)c2=O)cc1 -3.24%
COc1ccccc1Nc1ncnc2c1nc1n2CCCC1 -0.208%
Cc1ccc(-n2nc(C)c3c(C(=O)Nc4ccc(Br)c(C)c4)cc(C)nc32)cc1 8.21%
COC(=O)C1=C(C)NC(=O)C1(NC(=O)c1ccccc1C)C(F)(F)F (stereo not given) 0.753%
COCCNC(=O)CSc1nc(-c2ccc(C)cc2)nc2c1c(=O)n(C)c(=O)n2C 3.39%
COc1ccc(CCC(=O)NCc2ccc3c(c2)CCN3C(=O)c2ccc(C)cc2)cc1 2.05%
COc1cccc(-c2nc(SCC(=O)N3CCc4ccccc43)c3c(=O)n(C)c(=O)n(C)c3n2)c1 -6.93%
CCOC(=O)c1c(-c2ccccc2)oc2ccc(NS(=O)(=O)c3ccc(C(C)C)cc3)cc12 1.88%
Cc1cccc(OCC(=O)Nc2ccc3nc(Nc4cccc(Cl)c4)cc(C)c3c2)c1 -11.7%
COc1ccccc1NC(=O)c1c(NC(=O)c2ccccc2Cl)sc2c1CCC2 -0.0762%
CCOc1ccc(CNC(=O)CCCn2c(=O)c3cccn3c3ccc(F)cc32)cc1 7.78%
CC(=O)N1CCc2c(sc3c2c(=O)n(Cc2ccccc2)c(=O)n3CC(=O)Nc2ccc(C)c(F)c2)C1 -1.22%
Cn1c(=O)c(=O)n(C)c2cc(NC(=O)c3ccccc3Br)ccc21 0.236%
COc1ccc(CN2C(=O)C(NC(=O)c3ccccc3OC)(C(F)(F)F)N=C2c2ccccc2)cc1 (stereo not given) -10.1%
CCc1ccc(NC(=O)CCn2cnc3ccccc3c2=O)cc1 -7.84%
CCOC(=O)c1ccc(NC(=O)c2nn(C)c3c2COc2ccccc2-3)cc1 1.49%
Cc1ccc(S(=O)(=O)c2nnn3c2nc(NCc2ccccc2Cl)c2sccc23)cc1 -2.48%
CC(C)c1ccc(OCc2cc(=O)n3c(-c4ccccc4)csc3n2)cc1 -10.6%
COc1ccc(NC(=O)CCCN2C(=O)COc3ccc(C)cc32)cc1OC 0.164%
